# Results taken from the supplement of paper PMC8728848.
# The list shows a part of the results.
# Tests used:
# [1] = biological target: Neu5Gc(a2-8)Neu5Gc(a2-6)Gal(b1-4)GlcNAc; test: glycan array binding signal (z-score within array); higher = stronger binding; details: glycan notation: IUPAC condensed, linker removed; mutation: N224Q
# Outline: (§1)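 Negative Z-scores can be read as non-binding. The Z-score is calculated within each array and then averaged across arrays of one protein sequence at different concentrations or buffers and across linkers. Arrays, 3228 in all, were curated from the Consortium for Functional Glycomics database and kept only where the protein sequence was available.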
# [2] = biological target: Neu5Gc(b2-6)Gal(b1-4)GlcNAc; test: as above; details: glycan notation: IUPAC condensed, linker removed; mutation: N224Q
# Outline: as §1
binder,measurement,setting,value
AAL (Aleuria aurantia) (protein) MPTEFLYTSKIAAISWAATGGRQQRVYFQDLNGKIREAQRGGDNPWTGGSSQNVIGEAKLFSPLAAVTWKSAQGIQIRVYCVNKDNILSEFVYDGSKWITGQLGSVGVKVGSNSKLAALQWGGSESAPPNIRVYYQKSNGSGSSIHEYVWSGKWTAGASFGSTVPGTGIGATAIGPGRLRIYYQATDNKIREHCWDSNSWYVGGFSASASAGVSIAAISWGSTPQIRVYWQKGREELYEAAYGGSWNTPGQIKDASRPTPSLPDTFIAANSSGNIDISVFFQASGVSLQQWQWISGKGWSIGAVVPTGTPAGW,glycan array binding signal (z-score),[1],-0.31
same,glycan array binding signal (z-score),[2],-0.313
